# Measurements as given in article PMC4336329 (PLoS ONE, 2015).
# Screen size: about 310,000 compounds; about 2,200 (0.71%) showed an effect of 50% or more. Effects have a minus sign here. The list shows a part of the results.
# Target: human ether-à-go-go-related gene (hERG) potassium channel (human, UniProt Q12809)
# Test: primary screen, population patch clamp on CHO cells stably expressing hERG
# Sequence of human ether-à-go-go-related gene (hERG) potassium channel (Q12809 whole entry, looked up): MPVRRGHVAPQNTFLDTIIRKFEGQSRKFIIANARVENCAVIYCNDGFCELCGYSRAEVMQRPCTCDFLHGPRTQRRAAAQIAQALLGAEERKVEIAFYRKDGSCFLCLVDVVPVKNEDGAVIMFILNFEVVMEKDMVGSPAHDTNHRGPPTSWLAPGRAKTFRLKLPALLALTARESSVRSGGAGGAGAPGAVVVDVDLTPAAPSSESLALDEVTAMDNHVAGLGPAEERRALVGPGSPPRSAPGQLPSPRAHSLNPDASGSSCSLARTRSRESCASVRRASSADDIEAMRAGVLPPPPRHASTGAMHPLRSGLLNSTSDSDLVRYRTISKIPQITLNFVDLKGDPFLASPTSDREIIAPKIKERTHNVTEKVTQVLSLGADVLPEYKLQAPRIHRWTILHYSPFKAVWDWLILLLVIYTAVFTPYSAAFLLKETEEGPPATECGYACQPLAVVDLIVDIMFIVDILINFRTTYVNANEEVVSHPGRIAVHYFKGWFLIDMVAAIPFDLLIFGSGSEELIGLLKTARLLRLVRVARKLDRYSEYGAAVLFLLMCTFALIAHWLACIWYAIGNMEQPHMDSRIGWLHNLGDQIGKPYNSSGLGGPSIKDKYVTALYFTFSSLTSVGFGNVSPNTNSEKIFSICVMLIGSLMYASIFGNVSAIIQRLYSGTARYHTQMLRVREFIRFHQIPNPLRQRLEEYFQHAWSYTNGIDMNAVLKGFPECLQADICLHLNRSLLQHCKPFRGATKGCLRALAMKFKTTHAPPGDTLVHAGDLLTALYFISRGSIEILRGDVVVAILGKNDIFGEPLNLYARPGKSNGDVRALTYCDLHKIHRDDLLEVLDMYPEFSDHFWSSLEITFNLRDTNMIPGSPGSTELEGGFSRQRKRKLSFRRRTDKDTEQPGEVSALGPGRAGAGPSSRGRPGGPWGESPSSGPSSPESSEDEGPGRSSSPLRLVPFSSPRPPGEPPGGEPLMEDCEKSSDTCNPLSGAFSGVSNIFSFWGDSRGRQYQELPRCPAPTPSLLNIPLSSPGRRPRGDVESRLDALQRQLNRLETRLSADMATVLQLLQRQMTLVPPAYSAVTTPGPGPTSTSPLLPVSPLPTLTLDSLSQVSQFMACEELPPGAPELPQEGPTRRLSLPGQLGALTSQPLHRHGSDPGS
row,Structure (SMILES),"hERG current change (%, negative = inhibition) at 1uM [%]"
1,COC(=O)c1sc(NC(=S)NC(=O)c2ccccc2Cl)nc1C,11
2,COCC(=O)N1CCC(Oc2ccc(C(=O)NCc3cc(C)no3)cc2)CC1,-4.65
3,CCOc1cc(CNCCc2ccc(S(N)(=O)=O)cc2)ccc1OCC(=O)NC1CCCCC1.Cl,7.04
4,O=C(CCCCCn1c(=S)[nH]c2ccc(N3CCOCC3)cc2c1=O)NCc1ccc(Cl)cc1,18.3
5,COc1ccc(OC)c(CC(NC(C)=O)C(=O)NC2CCN(c3c(Cc4ccccc4)c(C)nc4ncnn34)CC2)c1 (stereo not drawn),5.3
6,CCCC(=O)NNc1cc(=O)c2c(=O)n(C)c(=O)n(C)c2[nH]1,8.94
7,COCCOC(=O)c1[nH]c2c(c1C)C(=O)C(C(=O)OC)C(C)C2 (stereo not drawn),6.73
8,O=C(CSc1nnc(NC(=O)c2ccco2)s1)Nc1ccc2c(c1)OCCO2,11.4
9,CSc1ncccc1C(=O)OCC(=O)c1cc(C)n(CC2CCCO2)c1C (stereo not drawn),6.63
10,CC(=O)Oc1ccc(/C=N/NS(=O)(=O)c2ccc(C)cc2)c(OC(C)=O)c1,9.55
11,O=C(c1ccc(Cl)c([N+](=O)[O-])c1)N(Cc1ccc(Cl)cc1)C1CCS(=O)(=O)C1 (stereo not drawn),1.54
12,CCn1c(=O)ccc2cc([N+](=O)[O-])ccc21,4.99
13,O=C(O)CN1C(=O)C2C3CC(C2C1=O)C1C(c2ccccc2)c2sc(=O)[nH]c2SC31 (stereo not drawn),14
14,CCOc1ccc(C2C(C(=O)Nc3ccc(F)cc3)=C(C)Nc3nc(CCCO)nn32)cc1 (stereo not drawn),2.86
15,Cc1ccc(S(=O)(=O)CCc2ccncc2)cc1,-3.31
16,O=C(c1cccs1)N1CCN(c2cccc(Cl)c2)CC1,11.4
17,CCOc1ncccc1C(=O)NCc1ccccc1F,-3.24
18,C=CCc1ccc(OCC(O)CN2CCN(c3ccccc3)CC2)c(OC)c1.Cl (stereo not drawn),-33.7
19,O=C(/C=C/c1c(Cl)cccc1Cl)N1CCOCC1,27.1
20,Cn1cccc1C(=O)OCC(=O)N1CC(=O)Nc2ccccc21,12.9
21,Cc1ccc(CNC(=O)CCCC(=O)c2ccccc2)cc1,2.33
22,CNCC(O)c1cc(F)c(OCc2ccccc2)c(OCc2ccccc2)c1F (stereo not drawn),14.7

row,Structure (SMILES),"hERG current change (%, negative = inhibition) at 1uM [%]"
1,Cc1ccc(C(=O)Oc2coc(CSc3nnc(NC(=O)c4cccs4)s3)cc2=O)cc1C,-8.71
2,Cn1cc(S(=O)(=O)N2CCN(c3ccccc3)CC2)c(=O)n(C)c1=O,8.79
3,Cc1cc(C)nc(NS(=O)(=O)c2ccc(NC(=O)C3(c4ccccc4)CCCC3)cc2)n1,3.51
4,Cc1cc(NC(=O)CSc2nnc(C3CC3)n2C)no1,14.8
5,O=C(COC(=O)[C@H](Cc1ccccc1)N1C(=O)c2ccccc2C1=O)Nc1ccc2c(c1)OCO2,1.25
6,Cn1c(Cc2cccs2)n[nH]c1=S,2.77
7,C/C(CCc1ccc2c(c1)OCO2)=N\NC(=O)c1ccc(C)cc1C,13.3
8,CCOc1cc(/C=N\NC(=O)c2ccc(NC(=O)C(C)(C)C)cc2)ccc1OC(=O)c1ccc(OC)cc1,18.1
9,C/C(=N\NS(=O)(=O)c1ccc(C)c([N+](=O)[O-])c1)c1cc2ccccc2o1,-1
10,COc1ccc(/C=C/C(=O)Nc2ccc(OC)cc2[N+](=O)[O-])cc1,-0.381
11,C=CCNC(=O)C1CC(=O)N(c2ccc(C)cc2)C1 (stereo not drawn),1.4
12,CC(=O)O[C@H]1C[C@@]2(C)[C@@H](C[C@@H](O)[C@H]3[C@@]4(C)CC[C@@H](O)[C@@H](C)C4CC[C@@]32C)/C1=C(\CCC=C(C)C)C(=O)[O-].[Na+] (stereo partly drawn),1.43
13,COc1ccc(Cl)cc1C(=O)Nc1ccc(S(N)(=O)=O)cc1,7.83
14,CSCCC(NC(=O)COc1ccccc1)C(=O)OC(C)C(=O)Nc1ccccc1C (stereo not drawn),6.5
15,Clc1ccc(CN2CCCCCCC2)cc1,-1.46
16,CN(C)CC/C=C1/c2ccc(F)cc2Sc2ccc(Cl)cc21.Cl,9.94
17,Cc1ccc(C(=O)N2CCCC(C(=O)c3ccc(Oc4ccccc4)cc3)C2)cn1 (stereo not drawn),3.62
18,O=C1Nc2ccc(F)cc2C12Nc1ccccc1-c1nnc(SCc3ccccc3)nc1O2 (stereo not drawn),2.79
19,COc1ccc(CCNC(=O)Cc2cc(OC)c(OC)cc2[N+](=O)[O-])cc1OC,12.2
20,CC(=O)Nc1ccc(NS(=O)(=O)c2c(Cl)cccc2Cl)cc1,7.47
21,CCOc1ccc(C(CC(=O)O)NS(=O)(=O)c2ccc(C)cc2)cc1OC (stereo not drawn),9.56
22,CC1C/C(=N/NC(=O)c2ccc(CSc3nc4ccccc4[nH]3)cc2)CC(C)(C)C1 (stereo not drawn),6.55

row,Structure (SMILES),"hERG current change (%, negative = inhibition) at 1uM [%]"
1,CC(C)SCCCCOc1ccc2ccccc2c1,1.42
2,Cn1cccc1C(=O)NNC(=O)COc1ccccc1Cl,3.95
3,Oc1ccc(/C=N/NC2=NCCCCC2)cc1,2.72
4,C#CCOCCOCCOCCNc1nc(N2CCN(C(=O)Cn3cc(CCC[NH+]=C(N)N)nn3)CC2)nc(N2CCN(C(=O)[C@H]([C@@H](C)CC)n3cc(CCCC[NH3+])nn3)CC2)n1.[Cl-],3.44
5,Cl.O=C(O)c1ccc(CNCc2ccc(F)cc2)cc1,15.3
6,ClC1(Cl)CC1Cn1cnc2ccccc21 (stereo not drawn),14
7,O=C(/C=C/c1ccc2ccccc2n1)c1cc(Cl)ccc1O,16
8,COc1ccccc1CNC(=O)CN1C(=O)NC2(CCCC2)C1=O,10.2
9,COc1cc(NC(=S)NC(=O)c2cccs2)ccc1NC(=O)C(C)C,5.78
10,CCOc1ccc(CNCCNC(=O)c2nonc2N)cc1.Cl,2.76
11,CNC(=O)Oc1ccc2ncccc2c1,-1.52
12,O=C(c1ccccc1C(=O)N1CCN(c2ccccc2)CC1)N1CCN(c2ccccc2)CC1,-4.1
13,Nc1nc(NC(=O)Cc2ccccc2)nn1-c1ccccc1,7.38
14,CCCCC(=O)Nc1ccc2c(c1)nc(CCN1CCN(C)CC1)n2C,24.7
15,O=C(COC(=O)Cc1c(Cl)cccc1Cl)NCCC1=CCCCC1,-5.08
16,Nc1nc(C23CC4CC(CC(Cl)(C4)C2)C3)cs1,12.2
17,Cn1c(N2CCCC2)nc2c1c(=O)n(Cc1ccc(Cl)cc1)c(=O)n2C,9.35
18,O=C(O)CC/C(=N/NC(=O)c1ccc(-c2ccccc2)cc1)c1ccccc1,2.78
19,CN(C)C(=S)c1ccc2ccccc2n1,14.9
20,CCC(CO)Nc1ncnc2c1cnn2-c1ccc(OC)cc1 (stereo not drawn),2.03
21,Cc1ccc(S(=O)(=O)Nc2n[nH]nc2C(=O)NC2CCCCC2)cc1,14.8
22,Cc1ccc(OCC(=O)NCC(=O)Nc2ccc(F)c(F)c2F)c([N+](=O)[O-])n1,-0.24

row,Structure (SMILES),"hERG current change (%, negative = inhibition) at 1uM [%]"
1,O=C(COC(=O)c1ccc[nH]c1=O)NC1CCCCCC1,7.37
2,Cc1cccc(-c2nsc(SCC(=O)c3ccc(Cl)cc3)n2)c1,3.86
3,Cc1cccc(N2CCN(C(=O)CSc3nnnn3C3CC3)CC2)c1C,4.46
4,O=C(/C=C/c1ccc(Cl)cc1Cl)c1ccc[nH]1,14.6
5,O=S(=O)(NCc1ccccc1)c1cccc(S(=O)(=O)N2CCOCC2)c1,-10.5
6,COc1ccc(Cn2c(N)c(C#N)c3nc4ccccc4nc32)cc1,12.9
7,Cn1c2ccccc2c2ncn(CCN3CCOCC3)c(=O)c21,1.96
8,COc1ccc([C@H]2CC(=O)C=C(c3ccc(SC)cc3)C2)cc1OC,16.7
9,O=c1nc(-c2ccccc2)c(-c2ccccc2)n[nH]1,13.4
10,COc1ccc(Cl)cc1S(=O)(=O)NC(C)C(=O)NCc1ccncc1 (stereo not drawn),15.5
11,CC1CCN(c2ccccc2NC(=O)c2cc3ccccc3o2)CC1,27.4
12,COc1ccccc1NS(=O)(=O)c1cccc(C(=O)NCC(c2ccccc2OC)N2CCCC2)c1 (stereo not drawn),-0.407
13,Cc1ccccc1-c1noc(CCC(=O)NCCc2ccccc2)n1,10.4
14,O=C(Nc1ccc2c(c1)OCO2)OCc1ccccc1,-3.43
15,COCCN1Cc2cccc(C(=O)Nc3c(C)cc(C)cc3C)c2C1=O,5.9
16,Cc1ccc(O)c(NC(=O)CSc2ccc(Cl)cc2)c1,13.4
17,CCn1c2ccccc2c2cc(NC(=O)c3cccc([N+](=O)[O-])c3)ccc21,12.7
18,COc1cccc(/C(O)=C2\C(=O)C(=O)N(c3ccccn3)C2c2cccc(OC)c2OC)c1 (stereo not drawn),10.7
19,CCNc1nc(NCC)n2c(SCC(=O)Nc3ccccc3)nnc2n1,5.22
20,CCc1c(C)nc2ncnn2c1N1CCCC(C(=O)NCCc2ccccc2)C1 (stereo not drawn),-5.89
21,COCCNc1nc2nonc2nc1N1CCC(N(C)C)C1 (stereo not drawn),10.8
